“And” between values parts separate entries of the source, which are not always exact repeats. Equal values may be shown once. Among all 94,000 compounds or so, about 6,200 (6.6%) were called active. Inconclusive results, whose numbers are uncertain, are shown with a selection of clear calls. Calls come from the whole dose curve; as a rule, active = well fitted inhibition curve with a large enough effect; inconclusive = small, poorly fitted or top-dose-only effect; inactive = flat fitted curve, though single readings scatter. A potency beside an inconclusive call is a rough fit, not a confirmed value.
Assay: Cytotoxic Profiling in HEK 293 Cell Line of Diverse Libraries Using Quantitative High-Throughput Screening; note: nearly all actives have a fitted effect of over 60% in size
Details: HEK 293 viability, ATP luminescence (CellTiter-Glo), 48-72 h; activity change, negative = cytotoxicity: at 115 µM (top of the series) unless noted; series mostly up to 115 µM
How it was run: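 Viability of HEK 293 cells, plated at 250 cells/well, was judged by cellular ATP after compound treatment for 48 or 72 hr. Luminescence was imaged 10 min after CellTiter-Glo addition at room temperature.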
% is set by controls: 0 for no effect and ±100 for the full control effect; potency is the fitted concentration of half-maximal effect; tags give direction and shape of the fitted curve.

| Structure (SMILES) | Potency | activity change, negative = cytotoxicity | outcome |
| --- | --- | --- | --- |
| COc1ccccc1-c1nc2nccc(-c3ccc(Cl)cc3)n2n1 | inconclusive: 89.1 µM [inhibitor, single point] |  |  |
| Cn1ncc(N2CCN(CC3(O)CCCNC3)CC2)cc1=O (stereo not given) | inconclusive: 79.4 µM [inhibitor, single point] |  |  |
| Cn1c(=O)c2ccnn2c2ccc(C(=O)NC3CCCC3)cc21 |  | inactive: -26.7% |  |
| CSc1ccc(-c2cccc(C(=O)NCC(=O)NCc3ccc4c(c3)OCO4)c2)cc1 | inconclusive: 3.55 µM [inhibitor, full curve, poor fit] |  |  |
| COc1ccc(-c2cccc(C(=O)N3CCC(NC(=O)c4ccc(F)cc4)CC3)c2)nn1 | inconclusive: 44.7 µM [inhibitor, partial curve, poor fit] |  |  |
| CSc1ccc(NC(=O)c2ccc3c(c2)N(C)C2CCCCN2C3=O)cc1 (stereo not given) | inconclusive: 44.7 µM [inhibitor, partial curve, poor fit] |  |  |
| O=C(NCc1ccccc1F)c1nc2sccn2c1Br | inconclusive: 28.2 µM [inhibitor, full curve] |  |  |
| COc1ccc(CN2CCC3(CC2)CC(O)CCO3)c(OC)c1 (stereo not given) | inconclusive: 89.1 µM [inhibitor, partial curve, poor fit] |  |  |
| O=C(c1ccc(Cn2cccn2)o1)N1CCCC2(CCC(=O)N(C3CC3)C2)C1 (stereo not given) |  | inactive: -0.103% |  |
| N#Cc1cccc(CN[C@H]2CO[C@H]3[C@@H]2OC[C@@H]3n2cc(-c3ccccn3)nn2)c1 | inconclusive: 100 µM [inhibitor, partial curve] |  |  |
| Cc1ccc2oc(CN3CCCn4nc(C(O)CN(C)C)cc4C3)c(C)c2c1 (stereo not given) | inconclusive: 50.1 µM [inhibitor, partial curve, poor fit] |  |  |
| COc1ncccc1CN1CCCn2nc(C)c(-c3ccccc3C(C)C)c21 | active: 50.1 µM |  |  |
| O=C(Cc1cccnc1)N1CCC2(CC1)CN(Cc1ccccc1)CC2CO (stereo not given) | inconclusive: 79.4 µM [inhibitor, single point] |  |  |
| O=C(Cc1cccc(Cl)c1)NC1CCCN(Cc2ccc(-c3cncnc3)cc2)C1 (stereo not given) | inconclusive: 8.91 µM [inhibitor, partial curve, poor fit] |  |  |
| Cc1cc2nc3n(c(=O)c2n1CC(=O)Nc1ccc(Br)cc1F)CCCCC3 | active: 25.1 µM |  |  |
| CC(C)c1cc(C(=O)NCc2cccnc2Oc2cccc(C(F)(F)F)c2)n[nH]1 | inconclusive: 35.5 µM [inhibitor, partial curve, poor fit] |  |  |
| CC(C)(C)c1cnc([C@@H]2COCCN2Cc2ccc(Cl)cc2)[nH]1 | inconclusive: 112 µM [inhibitor, partial curve] |  |  |
| COc1ccc(C(=O)NC2CCN(c3cc(-c4ccc(Cl)cc4)[nH]n3)C2)c(C)c1 (stereo not given) | inconclusive: 50.1 µM [inhibitor, partial curve, poor fit] |  |  |
| O=C(c1ccc(Cl)cc1)N1CCn2c(nn(-c3ccncc3)c2=O)C1 | inconclusive: 28.2 µM [inhibitor, partial curve, poor fit] |  |  |
| Nc1nc2c(c(=O)[nH]1)CCN(C(=O)Cc1c[nH]c3ccccc13)C2 | inconclusive: 7.08 µM [inhibitor, full curve, poor fit] |  |  |
| O=C(c1ccc(F)cc1)N1CCCC(C(=O)N2CCC(N3CCOC3=O)CC2)C1 (stereo not given) |  |  | inactive |
| COCCCN1CC2(CCN(C(=O)c3ccccc3N(C)C)CC2)CC1=O |  | inactive: -2.59% |  |

| Structure (SMILES) | Potency | activity change, negative = cytotoxicity | outcome |
| --- | --- | --- | --- |
| O=C(c1ccc(C(F)(F)F)cc1)N1CCC2(CC1)CCN(CCc1ccccc1)c1ccccc1O2 | inconclusive: 35.5 µM [inhibitor, full curve, poor fit] |  |  |
| CCN(C(=O)Cn1ccn2nc3c(c2c1=O)CCCCC3)c1cccc(C)c1 | inconclusive: 89.1 µM [inhibitor, single point] |  |  |
| O=C(N[C@@H]1COCC[C@H]1OCc1ccccn1)c1cnc(C2CC2)nc1 |  | inactive: -3.12% |  |
| O=c1[nH]c(C2CCN(Cc3ccc(-c4cccnc4)cc3)CC2)nc2ccc(F)cc12 | inconclusive: 8.91 µM [inhibitor, full curve, poor fit] and inconclusive: 10 µM [inhibitor, full curve, poor fit] |  |  |
| O=C(CCC1CCCN(Cc2cc3c(cc2Cl)OCO3)C1)Nc1ccccc1F (stereo not given) | inconclusive: 44.7 µM [inhibitor, partial curve, poor fit] |  |  |
| Cc1noc(C)c1[S+](=O)([O-])N1CCN(C(=O)c2nc3cccnc3n(Cc3ccccc3)c2=O)CC1 |  | inactive: -14% |  |
| Cc1ccc(NC(=O)C2CCN(c3cc(C(F)(F)F)ncn3)CC2)cc1 | inconclusive: 50.1 µM [inhibitor, partial curve, poor fit] |  |  |
| CC(C)(C)C(=O)NCCNC(=O)c1cccc(-c2ncccc2C#N)c1 |  | inactive: -15.5% |  |
| COc1cc(F)ccc1-c1cc2c(nc1OC)nc(CC1CC1)n2C | inconclusive: 79.4 µM [inhibitor, partial curve] |  |  |
| CC(C)Oc1cccc(-c2nc(C(=O)N(C)Cc3ccccc3)cs2)c1 | inconclusive: 56.2 µM [inhibitor, partial curve, poor fit] |  |  |
| O=C(NC1CCN(Cc2ccccc2)CC1)C1CCCN(c2cnn(Cc3ccccc3)c(=O)c2)C1 (stereo not given) | inconclusive: 50.1 µM [inhibitor, partial curve, poor fit] |  |  |
| O=C(c1ccsc1)N1CCCN(c2cc(-c3ccc(Cl)cc3)[nH]n2)CC1 | inconclusive: 50.1 µM [inhibitor, partial curve, poor fit] |  |  |
| CCCOC(=O)N1CCC(C(=O)Nc2cccc(-c3cccc(F)c3)c2)CC1 | active: 44.7 µM |  |  |
| Cc1oc(C(O)c2ccccc2)nc1C(=O)Nc1ccncc1 (stereo not given) | inconclusive: 79.4 µM [inhibitor, partial curve, poor fit] |  |  |
| Cc1nn(-c2ccc(F)cc2)c(Oc2ccc(F)cc2F)c1CCC(=O)N(C)C(C)C | active: 39.8 µM |  |  |
| CS(=O)(=O)N1CCC(C2CCN(C3CCSCC3)C2)CC1 (stereo not given) | inconclusive: 50.1 µM [inhibitor, partial curve, poor fit] |  |  |
| O=C(NC1CCN(c2cc(-c3ccccc3)[nH]n2)CC1)C1CCCCC1 |  | inactive: 0.134% |  |
| COc1ccc(-n2nc(C)c([C@@H]3C=C[C@@H](NC(=O)NCc4ccccc4)C3)c2C)cc1 | inconclusive: 39.8 µM [inhibitor, partial curve, poor fit] |  |  |
| O=C(NCCc1ccccc1)[C@@H]1C[C@@H](c2ccc(F)cc2)N([S+](=O)([O-])c2ccccc2)C1 | inconclusive: 44.7 µM [inhibitor, partial curve, poor fit] |  |  |
| CCC[C@H]1CN(Cc2c(C)noc2C)C[C@@H]1NC(=O)CN(C)C(N)=O |  |  | inactive |
| O=C1CN(Cc2ccc(-c3ccsc3)cc2)CCN1c1ccc(Cl)nn1 | inconclusive: 44.7 µM [inhibitor, partial curve, poor fit] |  |  |
| CN1CC2(CCN(C(=O)CC3CCCC3)CC2)CC1C(=O)N1CCOCC1 (stereo not given) |  | inactive: -5.11% |  |

| Structure (SMILES) | Potency | activity change, negative = cytotoxicity | outcome |
| --- | --- | --- | --- |
| c1ccc(-c2ccnc3nc(-c4cccs4)nn23)cc1 | inconclusive: 100 µM [inhibitor, single point] |  |  |
| Cc1ncsc1CCC(=O)N[C@@H]1COCC[C@@H]1Oc1cccc(F)c1 |  |  | inactive |
| COc1cccc(-c2cc(C3CCN(S(=O)(=O)c4ccc(F)cc4F)CC3)[nH]n2)c1 | active: 25.1 µM |  |  |
| Cc1ccc(NC(=O)Cn2c(C)cc3nc4n(c(=O)c32)CCCCC4)c(Cl)c1 | inconclusive: 50.1 µM [inhibitor, partial curve, poor fit] |  |  |
| CC(C)c1csc(CN2CC[C@@H](c3ccc4c(c3)OCO4)[C@H](O)C2)n1 | active: 22.4 µM |  |  |
| O=C(Nc1cccc(Cl)c1)c1ccc2oc(-c3ccncc3)nc2c1 | inconclusive: 14.1 µM [inhibitor, full curve, poor fit] |  |  |
| O=C1NCCN2CC3(CCN(S(=O)(=O)c4ccc5c(c4)OCCO5)CC3)CC12 (stereo not given) |  | inactive: -19% |  |
| O=C(Nc1ccc(OC(F)(F)F)cc1)N1CC[C@H]2COC(=O)N2c2cc(F)ccc2C1 |  | inactive: -26.3% |  |
| O=C(c1ccco1)N1CCCCCC1CN1CCOCC1 (stereo not given) |  | inactive: -2.94% |  |
| Cc1nn2c(c1-c1cccnc1N1CCOCC1)N(Cc1ccc3c(c1)CCO3)CCC2 |  | inactive: -23.4% [at 172 µM] |  |
| COc1cccc(CCNC(=O)c2c(C)noc2-c2ccc(OC(F)(F)F)cc2)c1 | inconclusive: 79.4 µM [inhibitor, single point] |  |  |
| COc1cc(F)ccc1-c1ccc(COc2ccc3c(cnn3CCC(=O)O)c2)cc1 | inconclusive: 112 µM [inhibitor, single point] |  |  |
| COc1ccc(C(=O)N2CC(Oc3ccc(F)cc3C)C2)cc1 | inconclusive: 79.4 µM [inhibitor, partial curve, poor fit] |  |  |
| Cc1ccc(Nc2ccnc(N3CCC(NC(=O)c4ccc(Cl)cc4)CC3)n2)cc1 | active: 22.4 µM |  |  |
| Cc1cc(CN(C)C(=O)c2csc3nc(-c4cccc(C(F)(F)F)c4)cn23)on1 | inconclusive: 63.1 µM [inhibitor, partial curve, poor fit] |  |  |
| CCOc1ccccc1CN1CCNC(=O)C1CC(=O)NCc1ccco1 (stereo not given) |  | inactive: -19.3% |  |
| O=C1c2c(nc(CNc3ccc(F)cc3)n2Cc2ccccc2)NCCN1CC1CC1 | inconclusive: 112 µM [inhibitor, partial curve, poor fit] |  |  |
| CC(C)(C)CC(=O)NCc1cccnc1Oc1cccc(C(F)(F)F)c1 | inconclusive: 35.5 µM [inhibitor, full curve, poor fit] |  |  |
| O=C(c1ccccc1C(F)(F)F)N1CCC(n2cnnc2C2CC2)CC1 |  | inactive: -0.584% |  |
| CCN1c2cc(C(=O)Nc3ccc(Cl)cc3)ccc2C(=O)N2CCCC21 (stereo not given) |  | inactive: -27.2% |  |
| O=C(Cc1cccc(F)c1)N1CCN(C(=O)N2CC3CC(C2)[C@H]2CCCC(=O)N2C3)CC1 (stereo not given in full) | inconclusive: 89.1 µM [inhibitor, single point] |  |  |
